{"source": "the supplement of paper PMC11417369", "note": "± gives the standard deviation of the averaged measurements. The list shows a part of the results.", "data": [{"system": "PfAP2-EXP AP2 domain (GST-tagged)", "assay": "gcPBM binding intensity (ln(normalized median fluorescence intensity)); higher = stronger DNA binding", "outline": "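Alexa488 anti-GST antibody, scanned at 488 nm, detected GST-tagged P. falciparum DNA-binding domains that had been expressed in E. coli and incubated for 1 h on an Agilent 4 × 180k array. The array carried primer-extended double-stranded 36-bp intergenic genomic probes and negative controls. Binding intensity is the highest Masliner-normalised natural-log median intensity across replicate spots of either orientation of each probe.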", "values": [{"sequence": "TACATACATATATATACACACATATATAATATATAT [CACACA_site388]", "gcPBM binding intensity (ln)": "8.45 ± 0.4"}, {"sequence": "TATATATACATATACACACATACGTACATACATATA [CACACA_site3585]", "gcPBM binding intensity (ln)": "8.75 ± 0.31"}, {"sequence": "ATGAAAGTAAGACATGCATGGAATTTTTTTTATTAG [TGCATGCA_site348]", "gcPBM binding intensity (ln)": "8.35 ± 0.35"}, {"sequence": "ATAATCCAACTTTGAGTGCGTGGTGTTTTTTTTTTC", "gcPBM binding intensity (ln)": "8.24 ± 0.26"}, {"sequence": "GGAATATTTTATGAGTGTACATTTTTTTTTTTTTTT [XGTACX_site2370]", "gcPBM binding intensity (ln)": "8.45 ± 0.24"}, {"sequence": "TTTCTTTTTTTTTTTTTTTCTTTTTTTTTTTTTTTC [CACACA_negctrl_site1025]", "gcPBM binding intensity (ln)": "8.06 ± 0.57"}, {"sequence": "CATATACATATATGTAGTACGTGTTCTTCTATATGA [XGTACX_site8344]", "gcPBM binding intensity (ln)": "8.8 ± 0.33"}, {"sequence": "AAATTGAATTAGTTAACACACAACTTTTATTTCATA [CACACA_site2840]", "gcPBM binding intensity (ln)": "8.29 ± 0.42"}, {"sequence": "ATTAATATGAAACGATTATAAGAAAGAAAAGAAATG [GTGCAC_negctrl_site701]", "gcPBM binding intensity (ln)": "8.69 ± 0.61"}, {"sequence": "TACATATACAGACACACACACACACCCCCACAAAAA [CACACA_site495]", "gcPBM binding intensity (ln)": "9.88 ± 0.52"}, {"sequence": "GTTATATGTTATATATATATATATATATATATATAT [TGCATGCA_negctrl_site428]", "gcPBM binding intensity (ln)": "10.2 ± 0.65"}, {"sequence": "AAATTAATAAGTCACACACACATATATAATATATAT [CACACA_site799]", "gcPBM binding intensity (ln)": "8.54 ± 0.36"}, {"sequence": "AATATATACATTTATATACACACCTATATATATATA [CACACA_site1972]", "gcPBM binding intensity (ln)": "10 ± 0.2"}, {"sequence": "AGCATCATTTTACACACATGCAAATGTAAAATAGGA [TGCATGCA_site460]", "gcPBM binding intensity (ln)": "8.83 ± 0.42"}, {"sequence": "ATAAAGATTAATTCAAGTACACATCAAATACTACAA [XGTACX_site8794]", "gcPBM binding intensity (ln)": "8.53 ± 0.26"}, {"sequence": "TATATATATTTATGTACACACATCAATCATATTAAC [CACACA_site5127]", "gcPBM binding intensity (ln)": "8.7 ± 0.057"}, {"sequence": "ATAAATAAAATAAAAGCACACAAAATGTAAATAATT [CACACA_site8895]", "gcPBM binding intensity (ln)": "8.8 ± 0.3"}, {"sequence": "TTTACCTCTTCAATGGTGCAATAACTCAAAAATTTG", "gcPBM binding intensity (ln)": "8.56 ± 0.11"}, {"sequence": "TTTTTATTTTATTAGTGTACTTTATATTTAACAATA [XGTACX_site1175]", "gcPBM binding intensity (ln)": "8.65 ± 0.2"}, {"sequence": "AAAAAAAAAAAAAGTACACACATACCTATAAATATA [CACACA_site6937]", "gcPBM binding intensity (ln)": "8.47 ± 0.37"}, {"sequence": "TTTATTTTTATAAGAGCATGCACTGTTTAAAATGGT [TGCATGCA_site628]", "gcPBM binding intensity (ln)": "9.39 ± 0.25"}, {"sequence": "TATATATTTATAAATGAACACACACCCAATTTGAAT [CACACA_site9113]", "gcPBM binding intensity (ln)": "8.96 ± 0.42"}, {"sequence": "TTTATATACATTTTAAATTTTAATGTAACCCATGGG [TGCATGCA_negctrl_site115]", "gcPBM binding intensity (ln)": "8.38 ± 0.59"}, {"sequence": "TATATACCTATATACACACACATATATAAATAAATA [CACACA_site7341]", "gcPBM binding intensity (ln)": "8.53 ± 0.63"}, {"sequence": "TATTTCTGATTACATACACACATATACAGATATGAC [CACACA_site7490]", "gcPBM binding intensity (ln)": "8.52 ± 0.4"}, {"sequence": "TTTGTATTGTGCAGATGTACATTATAATATTGGATT [XGTACX_site5033]", "gcPBM binding intensity (ln)": "8.68 ± 0.35"}, {"sequence": "ATTACATACGAGCACACGTAAAAGTATAATATAAAA [GTGCAC_negctrl_site446]", "gcPBM binding intensity (ln)": "8.57 ± 0.37"}, {"sequence": "TATGTTCCATTTTTTGGTACACATACAATAACTGCT [XGTACX_site2256]", "gcPBM binding intensity (ln)": "8.32 ± 0.26"}, {"sequence": "TTATATATAATATATACACACACATGTATATATAAA [CACACA_site8603]", "gcPBM binding intensity (ln)": "8.3 ± 0.34"}, {"sequence": "AACAAATACAAAGAATAGTCATCTGAATGGTGTTAT [GTGCAC_negctrl_site685]", "gcPBM binding intensity (ln)": "8.54 ± 0.43"}, {"sequence": "ATAATGATTATAATATGTACATAAATATATATATTA [XGTACX_site5029]", "gcPBM binding intensity (ln)": "8.61 ± 0.42"}, {"sequence": "AAACAATACATATATTGTACATATATTATATTATAT [XGTACX_site8136]", "gcPBM binding intensity (ln)": "8.43 ± 0.36"}, {"sequence": "AAAAAATCAAAACACACACACACACCCAAAAAAAAA [CACACA_site1444]", "gcPBM binding intensity (ln)": "8.52 ± 0.45"}, {"sequence": "TTAGAAATTCATTTTACACACAATTCAAAAGAATGT [CACACA_site2104]", "gcPBM binding intensity (ln)": "8.04 ± 0.45"}, {"sequence": "AATTTGAAATAAAGTAGTACAGTATATAAAAATATA [XGTACX_site128]", "gcPBM binding intensity (ln)": "8.58 ± 0.38"}, {"sequence": "CGGATCTATAAGTGTACACAATCTAGCGAAAAGTTT [CACACA_site4932]", "gcPBM binding intensity (ln)": "8.72 ± 0.55"}, {"sequence": "ATAAAATAAAAAAGTAGTACACACTTCACGATATTT [XGTACX_site8289]", "gcPBM binding intensity (ln)": "8.67 ± 0.23"}, {"sequence": "ATAATTATAAAATAAACACACATATATATTTATATG [CACACA_site440]", "gcPBM binding intensity (ln)": "8.27 ± 0.35"}, {"sequence": "AATAAATAAACAAATTAACACACAGAATTTTTTTTT [CACACA_site8485]", "gcPBM binding intensity (ln)": "8.45 ± 0.59"}, {"sequence": "ATTATGTTATATATATGTACATATATAATGTTCATA [XGTACX_site6184]", "gcPBM binding intensity (ln)": "8.47 ± 0.28"}, {"sequence": "AAAAATAATGCACATATATATAATATGTATATGTAT [CACACA_negctrl_site443]", "gcPBM binding intensity (ln)": "8.95 ± 0.33"}, {"sequence": "ATGTTTACATATTAGGGTACATAATAAATTGCATAT [XGTACX_site6712]", "gcPBM binding intensity (ln)": "8.46 ± 0.36"}, {"sequence": "TTATTGTAAATATATGCATGTGCAAAATGAAAAAAA [TGCATGCA_site399]", "gcPBM binding intensity (ln)": "9.07 ± 0.18"}, {"sequence": "TTTTAAACAAGACACACACACATATATATATATATA [CACACA_site925]", "gcPBM binding intensity (ln)": "10.2 ± 0.35"}, {"sequence": "GAATGTATAAAATGAACACACGCCAAATTAAATGAA [CACACA_site3044]", "gcPBM binding intensity (ln)": "8.56 ± 0.45"}, {"sequence": "CATGTATTTTATATTACACACTAATATTATATATAT [CACACA_site1508]", "gcPBM binding intensity (ln)": "8.48 ± 0.32"}, {"sequence": "ATATTAGATTAATTTACACACAGAAAATGAGATTTT [CACACA_site541]", "gcPBM binding intensity (ln)": "8.21 ± 0.36"}, {"sequence": "CCAACATATATTATCACACACATATATATATATATA [CACACA_site2016]", "gcPBM binding intensity (ln)": "10.2 ± 0.22"}, {"sequence": "AATAAACAAATATGTACACACATATACCTATAAATA [CACACA_site7358]", "gcPBM binding intensity (ln)": "8.48 ± 0.34"}, {"sequence": "TAGAGTATATATAAATGTACATATTTTATGCTAATT [XGTACX_site7821]", "gcPBM binding intensity (ln)": "8.47 ± 0.24"}, {"sequence": "AAAAAATTAAATAATTACAAAAAAATAAAATAAAAA [GTGCAC_negctrl_site638]", "gcPBM binding intensity (ln)": "8.49 ± 0.47"}, {"sequence": "TATGGAAGAAAATATACACACAAAAAAAAAAAATGG [CACACA_site4924]", "gcPBM binding intensity (ln)": "8.65 ± 0.46"}, {"sequence": "ATGATTTTTTTTATTTTTTAGCTAGAGCTAGCTTAT [CACACA_negctrl_site433]", "gcPBM binding intensity (ln)": "8.44 ± 0.39"}, {"sequence": "AACACTCAAAAAAATTTAAATAAAAAAAAAAAAAAA [CACACA_negctrl_site680]", "gcPBM binding intensity (ln)": "8.11 ± 0.63"}, {"sequence": "TATGAATGCTTTTATGCACACGTACAAAAATATTAT [CACACA_site8851]", "gcPBM binding intensity (ln)": "8.53 ± 0.22"}, {"sequence": "ATATGTTAAAAATTCACACAAAAAAGTATACAGATA [CACACA_site4179]", "gcPBM binding intensity (ln)": "8.86 ± 0.46"}]}]}
